Hit rate of the full screen: of about 120,000 compounds, about 5,300 (4.4%) were called active. The shares of active, inactive and inconclusive entries below differ from those in the screen. Calls follow the shape of the dose curve; as a rule, active = well fitted inhibition curve with a large enough effect; inconclusive = small, poorly fitted or top-dose-only effect; inactive = no such curve, though single readings can be large or run the other way. Potencies of inconclusive entries are doubtful fits and often do not repeat.
test: qHTS Primary assay for Inhibitors of Plasmodium falciparum Dd2 growth in vitro; also: nearly all actives have a fitted effect of over 65% in size;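 as to activity, negative = inhibition: plate controls were DMSO vehicle for no effect and reference drug for full effect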; details: P. falciparum Dd2 growth, SYBR Green, 72 h; activity, negative = inhibition: at 28.9 µM (top of the series) unless noted; series mostly up to 28.9 µM
Summary of the method: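 Readout: SYBR Green fluorescence, 485 nm excitation, 535 nm emission, after ~16 h lysis at 37C. Before that, Dd2-infected red cells (2.5% hematocrit) grew 72 h with compound, 29 uM top final concentration.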
Potency is read from the fitted curve at half-maximal effect; tags tell the direction and shape of the fitted curve.

| Compound | Potency | activity, negative = inhibition | outcome |
| --- | --- | --- | --- |
| CC(CCc1ccccc1)NC(=O)CN1C(=O)NC(c2ccc(Cl)cc2)C2=C1COC2=O (stereo unspecified) | inconclusive: 17.8 µM [inhibitor, single point] |  |  |
| C#CCOc1ccc(-c2nnc(Nc3cccc(C)c3)c3ccccc23)cc1 |  | inactive: -3.55% |  |
| COCc1ccc2c(c1)c(OC(C)(C)C(=O)N1CC(O)C1)nn2CCC(C)C | inconclusive: 11.2 µM [inhibitor, partial curve] |  |  |
| COCCn1c(C)cnc1CCNC(=O)COc1ccccc1 | inconclusive: 0.355 µM [inhibitor, partial curve, poor fit] |  |  |
| CNC(C)c1ccc(F)cc1 (stereo unspecified) |  | inactive: -8.62% [at 44.1 µM] |  |
| CCc1ccc2oc(C(=O)Nc3cccc(C(F)(F)F)c3)cc(=O)c2c1 |  |  | inactive |
| CN1C[C@@H](F)[C@@H](OCc2nc3ccc(C(F)(F)F)cc3[nH]2)C1 | inconclusive: 5.62 µM [inhibitor, single point] |  |  |
| Cc1nc2cccnc2n1CC1CCCN(S(=O)(=O)c2cccc(Cl)c2)C1 (stereo unspecified) | inconclusive: 3.98 µM [inhibitor, full curve, poor fit] |  |  |
| CCc1ccc(NC(=O)c2ccc(Cn3ccn4nc5c(c4c3=O)CCCC5)cc2)cc1 | inconclusive: 10 µM [inhibitor, single point] |  |  |
| CCOC(=O)c1cccc(NC(=O)Cn2ncc3c4ccccc4n(Cc4ccccc4)c3c2=O)c1 | inconclusive: 0.447 µM [inhibitor, full curve, poor fit] |  |  |
| Cc1ccc(C(=O)Nc2ccc3oc(-c4ccc(C(C)(C)C)cc4)nc3c2)cc1 | inconclusive: 1.26 µM [inhibitor, partial curve, poor fit] |  |  |
| COc1ccc(CN[C@@H]2C=C[C@@H](c3c(C)nn(-c4cccc(Br)c4)c3C)C2)cc1 | inconclusive: 2.51 µM [inhibitor, single point] |  |  |
| COc1ccc(-c2ccc(=O)n(CC(=O)Nc3ccc(C)cc3C)n2)cc1 |  | inactive: -1.11% |  |
| COc1ccccc1Nc1cc(C(=O)NC2CCCC2)c2ccccc2n1 |  | inactive: 16.7% |  |
| CCOC(=O)c1cnc(NCc2ccccc2OC)c2ccccc12 | inconclusive: 4.47 µM [inhibitor, partial curve, poor fit] |  |  |
| O=C(C[C@@H]1C[C@H]2O[C@H](CNCc3ccncc3F)[C@@H](O)[C@H]2O1)N1CCOCC1 |  | inactive: -1.8% [at 44.1 µM] |  |
| COc1cccc2sc(=NC(=O)c3ccc(S(=O)(=O)N4CCCCC4)cc3)n(C)c12 |  | inactive: 0.818% |  |
| CCOc1ccc(C2Cn3nnc(-c4nc(-c5cccc(OCC)c5)no4)c3CO2)cc1 (stereo unspecified) | inconclusive: 0.316 µM [inhibitor, full curve, poor fit] |  |  |
| O=C(O)COc1ccc(-c2nccc3c2C(=O)N(Cc2c[nH]c4ccccc24)CC(COc2ccccc2F)O3)cc1 (stereo unspecified) | inconclusive: 12.6 µM [inhibitor, single point] |  |  |
| O=C1Nc2ccccc2CN(CC2CC2)C12CCNCC2 | inconclusive: 0.562 µM [inhibitor, full curve, poor fit] |  |  |
| CCOCCCNC(=O)N1CCC2(CC1)CC(N(C(=O)c1ccccc1)C1CC1)CCO2 (stereo unspecified) |  |  | inactive |

| Compound | Potency | activity, negative = inhibition | outcome |
| --- | --- | --- | --- |
| COc1ccc(C(=O)N[C@@H]2CCC[C@@H]2C(=O)N2CCN(c3ccc(Cl)cc3)CC2)cn1 | inconclusive: 17.8 µM [inhibitor, single point] |  |  |
| COc1cc2c(cc1OC)C(CNC(=O)C(C)C)N(C(=O)Nc1ccc(C)cc1)CC2 (stereo unspecified) | inconclusive: 2.82 µM [inhibitor, full curve] |  |  |
| Cc1cc(C)c(CNC(=O)c2nc(-c3ccc(CN(C)C)cc3)cc3c2ccn3C(C)C)c(=O)[nH]1 | inconclusive: 3.16 µM [inhibitor, single point] |  |  |
| CCCCCn1c(=O)[nH]c2cc(C(=O)N3CCN(c4cccc(C)c4)C(C)C3)ccc2c1=O (stereo unspecified) | inconclusive: 10 µM [inhibitor, single point] |  |  |
| CSc1ccc(-c2nc3ccc(C)cn3c2Nc2ccccc2C)cc1 | inconclusive: 1.26 µM [inhibitor, single point] |  |  |
| N#Cc1cccc(-c2ccnc(N[C@H]3CO[C@H]4[C@@H]3OC[C@H]4OC(=O)Nc3cccc4ccccc34)n2)c1 | active: 11.2 µM |  |  |
| CCNC(=O)NC[C@@H]1C=C(C)[C@H](Cc2nnc(-c3cncn3C)o2)C[C@H]1C(C)C | inconclusive: 1.58 µM [inhibitor, partial curve] |  |  |
| COc1ccc(-c2cc(C)nc3c(-c4ccc(OC)c(OC)c4)c(C)nn23)cc1 | inconclusive: 17.8 µM [inhibitor, single point] |  |  |
| COc1ccc(N2CCN(C(=O)c3cc4ccc5cccnc5c4[nH]3)CC2)cc1 |  | inactive: 38.5% |  |
| COc1ccccc1N1CCN(c2ncncc2-c2nc(-c3ccccc3)no2)CC1 |  | inactive: -1.85% |  |
| CC(=O)Nc1cccc(-c2cn(C)c(=O)n3cc(COc4ccc(Cl)cc4)nc23)c1 | inconclusive: 2.82 µM [inhibitor, partial curve, poor fit] |  |  |
| Cc1ccc(S(=O)(=O)NC[C@H]2OC[C@@H](NC3CCOCC3)[C@@H]2O)cc1 |  | inactive: -1.12% [at 44.1 µM] |  |
| CN1CCN(c2cc(=O)c3ccnc(-c4ccccc4Oc4ccccc4)c3o2)CC1 | inconclusive: 8.91 µM [inhibitor, partial curve, poor fit] |  |  |
| Cc1cnc(CC2CCN(C(=O)c3ccco3)CC2)n1CC1CC1 |  |  | inactive |
| C[C@@H](NC(=O)C1=C[C@@H](NC(=O)c2cccs2)[C@@H](O)[C@H](O)C1)C(N)=O |  |  | inactive [at 44.1 µM] |
| COc1ccc(OC)c(CCNc2ncnc3onc(-c4ccc(F)cc4)c23)c1 | inconclusive: 17.8 µM [inhibitor, single point] |  |  |
| CCC(=O)N1CCC(CC)(N2CCN(S(=O)(=O)c3cccc(C(F)(F)F)c3)CC2)C1 (stereo unspecified) | inconclusive: 10 µM [inhibitor, single point] |  |  |
| CCOc1ccc(C(=O)N2CCCN(c3cc(-c4ccc(Cl)cc4)[nH]n3)CC2)cc1OCC | active: 5.01 µM |  |  |
| CCn1ncc(CN2CCCCCNC(=O)CC2c2ccccc2)c1C (stereo unspecified) | inconclusive: 3.16 µM [inhibitor, partial curve, poor fit] |  |  |
| C[C@@H](c1ccccc1)N1C(=O)[C@@H]2CN(C(=O)c3ccco3)CCN2C1=O |  | inactive: -21.5% [at 44.1 µM] |  |

Reference: PubChem BioAssay AID1347417 (National Center for Advancing Translational Sciences (NCATS), 2020)
